According to PubChem BioAssay AID1347165 (National Center for Advancing Translational Sciences (NCATS), 2019):
In all, about 220,000 compounds went through this assay and about 5,700 (2.6%) were called active. This list was built around the results that the source calls inconclusive (neither active nor inactive); the mix of calls is not that of the screen. Calls come from the whole dose curve; as a rule, active = well fitted inhibition curve with a large enough effect; inconclusive = small, poorly fitted or top-dose-only effect; inactive = no such curve, though single readings can be large or run the other way. A potency beside an inconclusive call is a rough fit, not a confirmed value.

molecular target: Lysine-specific demethylase 5B (Homo sapiens) (UniProt Q9UGL1); test: Primary screen for KDM5B Histone Demethylases FDH-coupled qHTS; details: FDH-coupled NADH fluorescence (FDH is formaldehyde dehydrogenase); series mostly up to 57.7 µM; note: nearly all actives have a fitted effect of over 70% in size
Method in brief: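 Here, H3K4me3 peptide (12.5 µM in substrate mix) is demethylated by KDM5BΔAP, 200 nM final, after 10 min compound exposure. Formaldehyde product is coupled through FDH (0.25 U/mL in mix) to NADH fluorescence; 30-min ΔRFU feeds dose-response curves.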
Potency is the fitted concentration of half-maximal effect; tags give direction and shape of the fitted curve.

Sequence of UniProt Q9UGL1 (Q9UGL1 whole entry, looked up): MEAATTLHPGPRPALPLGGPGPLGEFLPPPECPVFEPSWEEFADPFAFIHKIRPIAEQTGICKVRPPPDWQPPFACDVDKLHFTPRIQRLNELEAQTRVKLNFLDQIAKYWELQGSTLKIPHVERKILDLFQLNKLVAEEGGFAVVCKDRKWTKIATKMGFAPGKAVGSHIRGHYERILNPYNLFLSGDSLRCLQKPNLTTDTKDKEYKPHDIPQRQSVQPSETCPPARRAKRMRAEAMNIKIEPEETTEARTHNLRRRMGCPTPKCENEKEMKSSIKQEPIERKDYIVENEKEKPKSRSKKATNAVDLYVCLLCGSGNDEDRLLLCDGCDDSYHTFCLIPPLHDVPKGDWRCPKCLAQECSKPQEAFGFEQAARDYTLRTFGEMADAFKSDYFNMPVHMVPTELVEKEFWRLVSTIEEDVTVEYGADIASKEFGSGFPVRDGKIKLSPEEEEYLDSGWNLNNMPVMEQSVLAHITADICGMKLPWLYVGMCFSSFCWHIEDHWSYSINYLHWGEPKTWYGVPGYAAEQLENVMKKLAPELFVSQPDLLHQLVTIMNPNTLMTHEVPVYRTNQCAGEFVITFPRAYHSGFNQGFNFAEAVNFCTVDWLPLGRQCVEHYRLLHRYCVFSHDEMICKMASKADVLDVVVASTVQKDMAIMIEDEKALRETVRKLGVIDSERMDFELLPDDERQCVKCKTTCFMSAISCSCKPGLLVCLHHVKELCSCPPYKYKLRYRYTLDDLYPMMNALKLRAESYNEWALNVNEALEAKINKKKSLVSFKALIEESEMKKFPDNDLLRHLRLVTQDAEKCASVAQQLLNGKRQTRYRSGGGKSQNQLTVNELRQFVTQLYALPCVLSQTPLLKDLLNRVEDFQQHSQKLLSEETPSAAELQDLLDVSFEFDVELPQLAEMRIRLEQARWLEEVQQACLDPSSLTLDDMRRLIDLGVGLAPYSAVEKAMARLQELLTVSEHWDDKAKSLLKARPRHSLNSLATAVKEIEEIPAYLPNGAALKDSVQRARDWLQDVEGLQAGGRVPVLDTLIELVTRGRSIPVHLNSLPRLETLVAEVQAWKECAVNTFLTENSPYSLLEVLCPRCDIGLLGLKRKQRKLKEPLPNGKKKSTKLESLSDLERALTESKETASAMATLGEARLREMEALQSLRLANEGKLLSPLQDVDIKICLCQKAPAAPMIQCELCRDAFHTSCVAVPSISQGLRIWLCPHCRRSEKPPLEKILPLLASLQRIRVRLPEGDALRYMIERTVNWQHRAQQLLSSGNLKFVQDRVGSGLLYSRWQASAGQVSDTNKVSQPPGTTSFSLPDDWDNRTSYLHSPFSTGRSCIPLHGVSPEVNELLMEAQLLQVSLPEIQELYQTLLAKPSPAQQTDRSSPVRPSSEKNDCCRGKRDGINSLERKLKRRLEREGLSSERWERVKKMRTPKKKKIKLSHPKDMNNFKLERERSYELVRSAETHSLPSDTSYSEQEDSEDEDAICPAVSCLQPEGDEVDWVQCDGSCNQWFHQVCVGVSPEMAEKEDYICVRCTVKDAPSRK

Structure (SMILES)	Potency
CN1c2cc(C(=O)NC3CCCCC3)ccc2C(=O)N2CCCCC21 (centres undefined)	inconclusive: 25.1 µM [inhibitor, partial curve, poor fit]
CCCCCCN(CCC(=O)NCc1ccco1)C(=O)c1ccoc1	inconclusive: 20 µM [inhibitor, partial curve, poor fit]
Clc1ccc(-c2cnc([C@@H]3COCCN3C3CCCCC3)[nH]2)s1	inconclusive: 25.1 µM [inhibitor, partial curve]
CCc1cc(=O)n(CC(=O)N2CCCCC2C)c(-c2ccccc2)n1 (centres undefined)	inactive
CCOC(=O)C(CC)Sc1ncnc2sc3c(c12)CCCC3 (centres undefined)	inconclusive: 15.8 µM [inhibitor, partial curve, poor fit]
CSc1nn(CCN(C)C)c2nc3sc4c(c3c(=O)n12)CCCCC4	inactive
COc1cc(N2CC(C(=O)Nc3c(C)nn(C)c3C)CC2=O)cc(OC)c1OC (centres undefined)	inactive
COc1cc(C2CC(=O)Nc3nc(N4CCCCC4)sc32)ccc1OCC(N)=O (centres undefined)	inconclusive: 14.1 µM [inhibitor, partial curve, poor fit]
CCOc1ccc(-c2cc3c(=O)n(CC(=O)NCc4ccc(OC)cc4)ccn3n2)cc1	inactive
COC(=O)C(C)(C)NC(=O)c1ccc2c(c1)NC(=O)CS2	inactive
CCS(=O)(=O)N1CCc2cc(C(=O)Nc3cccc(C)c3C)ccc21	inconclusive: 17.8 µM [inhibitor, partial curve, poor fit]
COc1ccc(-c2cc(N3CCCN(C(=O)c4ccc5[nH]ccc5c4)CC3)n[nH]2)cc1	inconclusive: 17.8 µM [inhibitor, single point]
CC(=O)N1CCC(C(=O)NCc2cccnc2N(C)Cc2ccccc2)CC1	inconclusive: 39.8 µM [inhibitor, single point]
CN1C[C@H](O)C[C@H]1c1nnc2n1CCN(C(=O)C1CCCC1)CC2	inconclusive: 35.5 µM [inhibitor, single point]
COc1cc(/C=C/C(=O)OCC(=O)OC2CC(C)CCC2C(C)C)cc(OC)c1OC (centres undefined)	inconclusive: 25.1 µM [inhibitor, partial curve, poor fit]
Cc1noc2c(-c3cccnc3N3CCOCC3)cc(-c3ccccc3)nc12	active: 35.5 µM
CCCCN(C)C(=O)CSc1nc2ccsc2c(=O)n1-c1cc(F)cc(F)c1	inactive
Cn1c(=O)c2c(nc(N3CCOCC3)n2CC(O)COc2ccc(Cl)cc2)n(C)c1=O (centres undefined)	inactive
CCOC(=O)C1CCCN(C(=O)c2c(C)nn(-c3ccc(F)cc3)c2-n2cccc2)C1 (centres undefined)	inconclusive: 28.2 µM [inhibitor, single point]
